{"source": "patent US12414969B2", "about": "“Methods and compositions for reducing clostridium difficile infection” (priority 2014, dated 2025)", "key": {"[1]": {"tested_on": "C. difficile", "test": "Addition of secondary bile acids to culture media, C. difficile growth", "conditions": "bile acid added to culture media"}, "[2]": {"tested_on": "C. difficile", "conditions": "literature reference 44; cited from earlier work"}}}
{"smiles": "C[C@H](CCC(=O)O)[C@H]1CC[C@H]2[C@@H]3CC[C@@H]4C[C@H](O)CC[C@]4(C)[C@H]3C[C@H](O)[C@]12C", "note": "[DCA, deoxycholic acid]", "values": [{"measurement": "C. difficile growth inhibition in culture media", "setting": "[1]", "value": "inhibit C. difficile in a dose-dependent fashion"}, {"measurement": "C. difficile inhibition in vitro (previously shown)", "setting": "[2]", "value": "previously shown to inhibit C. difficile in vitro"}]}
